Our source for the cytotoxicity call and growth inhibition call values is the antibiotic and cytotoxicity screens of Wong et al. (2023).

The subject of one experiment is HSkMC. The experiment can be described thus: cytotoxicity call (relative viability < 0.9). The settings on record: 10 µM.
Another experiment has as its system HepG2. The experiment can be described thus: cytotoxicity call (relative viability < 0.9). The settings on record: 10 µM.
A further experiment has as its system S. aureus RN4220. The experiment can be described thus: growth inhibition call (relative growth <= 0.2). To be noted: 50 µM.

The list shows a part of the results.

For the molecule `C[C@@H]1CN([C@@H](C)CO)C(=O)c2cc(NS(C)(=O)=O)ccc2O[C@@H]1CN(C)S(=O)(=O)c1cn(C)cn1`, the cytotoxicity call in the experiment with HSkMC and in the experiment with HepG2 was “inactive” throughout. Besides, the growth inhibition call in the experiment with S. aureus RN4220 is “inactive”.

As to `O=C(C[C@H]1CC[C@@H](NC(=O)c2ccc(F)cc2)[C@H](CO)O1)NCc1ccncn1`, the cytotoxicity call in the experiment with HSkMC and in the experiment on HepG2 was “inactive” each time. Further, the growth inhibition call with S. aureus RN4220 is “inactive”.

For `CC(C)NC(=O)N(C)C[C@@H]1Oc2ccc(NS(=O)(=O)c3ccc(Cl)cc3)cc2C(=O)N([C@@H](C)CO)C[C@@H]1C`, the cytotoxicity call in the experiment with HSkMC and in the experiment with HepG2 was “inactive” throughout. For the same molecule, the growth inhibition call in the experiment with S. aureus RN4220 is “inactive”.

As for `Cc1ccc(S(=O)(=O)Nc2ccc3c(c2)C(=O)N([C@@H](C)CO)C[C@@H](C)[C@H](CN(C)Cc2ccc(Oc4ccccc4)cc2)O3)cc1`, the cytotoxicity call in the experiment on HSkMC and in the experiment with HepG2 was “inactive” throughout. Besides, the growth inhibition call with S. aureus RN4220 is “inactive”.

Turning to `O=C1[C@@H]2[C@H](C(=O)N1c1ccccc1)C13COC[C@H](c4ccccc4)N1C(=O)C2(C(=O)NCc1ccccc1)O3` (stereo partly specified), the cytotoxicity call in the experiment on HSkMC and in the experiment on HepG2 was “inactive” in each case. In addition, the growth inhibition call in the experiment with S. aureus RN4220 is “inactive”.

For `CN1C(=O)c2cc(NC(=O)Nc3ccccc3F)ccc2OC[C@H]2O[C@@H](CC(=O)Nc3cccc(Cl)c3)CC[C@@H]21`, the cytotoxicity call in the experiment on HSkMC was “inactive”. The cytotoxicity call in the experiment on HepG2 is “active”. Further, in the experiment with S. aureus RN4220, the growth inhibition call is “inactive”.

On to `C[C@@H]1CN([C@H](C)CO)C(=O)c2cc(NC(=O)c3ccncc3)ccc2O[C@H]1CN(C)S(=O)(=O)c1cccs1`, for which the cytotoxicity call with HSkMC and with HepG2 was “inactive” in each case. The growth inhibition call in the experiment on S. aureus RN4220 was “inactive”.

For `Cc1ccc(S(=O)(=O)Nc2ccc3c(c2)C(=O)N([C@H](C)CO)C[C@@H](C)[C@@H](CN(C)Cc2ccccc2)OCCCC[C@H](C)O3)cc1`, the cytotoxicity call with HSkMC and in the experiment on HepG2 was “inactive” each time. Besides, the growth inhibition call with S. aureus RN4220 is “inactive”.

For `COc1cncc(O)c1`, the cytotoxicity call in the experiment on HSkMC and in the experiment with HepG2 was “inactive” in each case. Besides, the growth inhibition call with S. aureus RN4220 was “inactive”.

As to `COC(=O)C1=C2CC[C@H](CO)NC(=O)N[C@H](Cc3ccccc3)C(=O)NCc3cn(nn3)C[C@H](Cc3ccccc3)NC(=O)c3oc(c(C(=O)OC)c3C(=O)OC)CC[C@H](CO)NC(=O)N[C@H](Cc3ccccc3)C(=O)NCc3cn(nn3)C[C@H](Cc3ccccc3)NC(=O)C(=C1C(=O)OC)O2`, the cytotoxicity call with HSkMC and in the experiment with HepG2 was “inactive” in each case. Moreover, the growth inhibition call in the experiment with S. aureus RN4220 was “inactive”.

As to `Cc1noc(C)c1S(=O)(=O)Nc1cccc2c1O[C@@H](CN(C)C(=O)Nc1ccc3c(c1)OCO3)[C@@H](C)CN([C@@H](C)CO)C2=O`, the cytotoxicity call in the experiment with HSkMC and in the experiment on HepG2 was “inactive” throughout. In addition, the growth inhibition call in the experiment on S. aureus RN4220 is “inactive”.

Consider `N[C@H]1CCCN(c2ncccn2)C1`, for which the cytotoxicity call in the experiment with HSkMC and in the experiment on HepG2 was “inactive” throughout. Moreover, in the experiment with S. aureus RN4220, the growth inhibition call was “inactive”.

As for `COc1ccc(S(=O)(=O)N(C)C[C@@H]2Oc3ccc(NC(=O)Nc4cccc5ccccc45)cc3C(=O)N([C@@H](C)CO)C[C@@H]2C)cc1`, the cytotoxicity call with HSkMC and with HepG2 was “inactive” each time. In the experiment on S. aureus RN4220, the growth inhibition call was “inactive”.

For `C[C@H](CO)N1C[C@H](C)[C@H](CN(C)C(=O)Nc2ccc3c(c2)OCO3)Oc2c(NC(=O)c3ccncc3)cccc2C1=O`, the cytotoxicity call in the experiment on HSkMC and with HepG2 was “inactive” in each case. For the same molecule, in the experiment on S. aureus RN4220, the growth inhibition call is “inactive”.

For the molecule `C[C@@H]1CCCCO[C@H](CN(C)C(=O)Nc2ccccc2)[C@@H](C)CN([C@@H](C)CO)C(=O)c2cc(NS(=O)(=O)c3ccc(Cl)cc3)ccc2O1`, the cytotoxicity call with HSkMC was “inactive”. For the same molecule, in the experiment on HepG2, the cytotoxicity call is “active”. Moreover, the growth inhibition call with S. aureus RN4220 was “inactive”.

Turning to `CN1CCN(C(=O)C[C@@H]2CC[C@@H]3[C@H](COC[C@H](O)CN3S(=O)(=O)c3cccc(F)c3)O2)CC1`, the cytotoxicity call in the experiment on HSkMC and in the experiment on HepG2 was “inactive” in each case. For the same molecule, the growth inhibition call in the experiment on S. aureus RN4220 was “inactive”.

Consider `COc1ccc(CN(C)C[C@@H]2OCCCC[C@H](C)Oc3ccc(NC(=O)Nc4cccc5ccccc45)cc3C(=O)N([C@H](C)CO)C[C@H]2C)cc1`, for which the cytotoxicity call in the experiment with HSkMC and in the experiment on HepG2 was “active” throughout. For the same molecule, the growth inhibition call with S. aureus RN4220 is “inactive”.

For the molecule `O=C(C[C@@H]1CC=CCCC(=O)OC[C@H](Cc2c[nH]c3ccccc23)NC1=O)N[C@@H](CO)Cc1ccccc1`, the cytotoxicity call with HSkMC and in the experiment on HepG2 was “inactive” throughout. In addition, the growth inhibition call with S. aureus RN4220 was “inactive”.

On to `O=C(C[C@H]1C[C@@H]2c3cc(NC(=O)c4cccnc4)ccc3O[C@@H]2[C@H](CO)O1)NCc1cc(F)ccc1F`, for which the cytotoxicity call with HSkMC and in the experiment with HepG2 was “inactive” in each case. In addition, the growth inhibition call in the experiment on S. aureus RN4220 was “inactive”.

As to `C[C@@H]1CCCCO[C@@H](CN(C)C(=O)Nc2ccc3c(c2)OCO3)[C@@H](C)CN([C@@H](C)CO)C(=O)c2cc(NC(=O)Nc3ccccc3)ccc2O1`, the cytotoxicity call in the experiment on HSkMC and with HepG2 was “inactive” each time. For the same molecule, in the experiment on S. aureus RN4220, the growth inhibition call is “inactive”.

Take `Cn1cnc(CCNC(=O)C[C@@H]2CC[C@H]3[C@@H](COC[C@H](O)CN3C(=O)C3CC3)O2)c1`: the cytotoxicity call in the experiment with HSkMC and with HepG2 was “inactive” in each case. Also, in the experiment with S. aureus RN4220, the growth inhibition call is “inactive”.

On to `Cn1cc(Cl)c(C(=O)O)n1`, for which the cytotoxicity call in the experiment on HSkMC and with HepG2 was “inactive” in each case. In the experiment on S. aureus RN4220, the growth inhibition call was “inactive”.

`Cc1ccc(S(=O)(=O)N(C)C[C@H]2OCCCC[C@H](C)Oc3ccc(NC(=O)C4CCCCC4)cc3C(=O)N([C@@H](C)CO)C[C@H]2C)cc1`: the cytotoxicity call with HSkMC and with HepG2 was “inactive” each time. Further, in the experiment on S. aureus RN4220, the growth inhibition call is “inactive”.

Consider `C[C@@H]1CCCCO[C@H](CN(C)C(=O)Nc2ccccc2)[C@H](C)CN([C@H](C)CO)C(=O)c2cc(NC(=O)c3ccccc3)ccc2O1`, for which the cytotoxicity call in the experiment on HSkMC and in the experiment with HepG2 was “inactive” throughout. For the same molecule, the growth inhibition call with S. aureus RN4220 was “inactive”.

Regarding `C[C@@H]1CN([C@@H](C)CO)S(=O)(=O)c2ccc(Br)cc2O[C@@H]1CN(C)S(=O)(=O)c1ccccc1`, the cytotoxicity call with HSkMC and in the experiment with HepG2 was “inactive” throughout. In addition, the growth inhibition call in the experiment on S. aureus RN4220 is “inactive”.

Turning to `C[C@@H]1CCCCO[C@@H](CN(C)S(=O)(=O)c2cccs2)[C@H](C)CN([C@@H](C)CO)C(=O)c2cc(NS(C)(=O)=O)ccc2O1`, the cytotoxicity call in the experiment on HSkMC (human skeletal muscle cells) and with HepG2 was “inactive” throughout. In addition, the growth inhibition call in the experiment with S. aureus RN4220 was “inactive”.

As for `O=c1nc[nH]c2ncccc12`, the cytotoxicity call with HSkMC and in the experiment on HepG2 was “inactive” throughout. Moreover, the growth inhibition call in the experiment on S. aureus RN4220 is “inactive”.
